The results in this text go back to the RNAGym collection of RNA variant scans (doi:10.1073/pnas.2313332121).

This sample is rich in variants without activity.

First the molecules themselves.
B1: TPR 5TU (parent)
chain: GGAUCUUCUCGAUCUAACAAAAAAGACAAAUCUGCCACAAAGCUUGAGAGCAUCUUCGGAUGCAGAGGCGGCAGCCUUCGGUGGCGCGAUAGCGCCAACGUUCUCAACUAUGACACGCAAAACGCGUGCUCCGUUGAAUGGAGUUUAUCAUG

Variants of B1 are the subject of the series. Description: polymerase ribozyme fitness, log enrichment relative to wild type (log ratio); higher = more active; in vitro selection for triplet polymerase activity. In short, it runs like this:
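The heterodimeric triplet polymerase ribozyme's subunits were each mutagenized into PCR-built libraries and transcribed. Every library was selected once, in triplicate, by annealing with a biotinylated primer, the partner subunit and triplets, incubating frozen at −7 °C, gel-excising extended constructs, capturing on streptavidin beads and running RT-PCR. Input and output libraries were Illumina-sequenced, with genotypes kept only at ≥10 input reads and ≥1 read per output. Fitness, from inverse-variance-weighted replicate averages, is the base-2 logarithm of genotype enrichment over wild-type enrichment.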
For the variant C5A A29C C69G C95U C96U A107G A138U, the “polymerase ribozyme fitness (log ratio)” value was at most -4.2. A3U U13A C32G C54U C69A G94U C96A A97G U144G U151G: the “polymerase ribozyme fitness (log ratio)” value is at most -4.2.

For the variant C5U A28G A40U U53A C87A C108A G141C, the “polymerase ribozyme fitness (log ratio)” value was at most -4.2. As to A3G G94A C99A U109G A113G, the “polymerase ribozyme fitness (log ratio)” value was at most -4.2. The result for U4G A60C C76A G92U C95A U145G C149G reads at most -4.2; that for C5G A91C C114U, at most -4.2; that for A3U C36G C69A C95G, at most -4.2. The result for C5U A37U U44A C85A A113U reads at most -4.2; that for U4C C8G A12C C35G G68U A73G G94A U148C, at most -4.2. In the case of A3C A26U G50U C93A C96A A98U it was at most -4.2. Take A3U A22U A73G A106U A150C: the “polymerase ribozyme fitness (log ratio)” value is at most -4.2. As for A3U C8G G65U A97G C99A, the “polymerase ribozyme fitness (log ratio)” value was at most -4.2.

Regarding C5A A17U A49U U61A C103G C118A U139G, the “polymerase ribozyme fitness (log ratio)” value was at most -4.2. In the case of C5A A23U A29G G84A C103G C116U G128A it was at most -4.2; in that of C5G A23U G88U C93G C96U, at most -4.2. In the case of C5U A73U G74U A89C C93G C95G it was at most -4.2; in that of C5A C43G C54G G59A U61G G92C A110C A120G, at most -4.2; in that of U4A U31G A41C G59U C76A A89C, at most -4.2.

For the variant C5G A16C A29G G71A C99A, the “polymerase ribozyme fitness (log ratio)” value is at most -4.2. As for A3C C14U C35A C85G G88C G92C C95U A122U U127G, the “polymerase ribozyme fitness (log ratio)” value is at most -4.2. Consider A3G C36U A49U U55A C75G C96U, for which the “polymerase ribozyme fitness (log ratio)” value was at most -4.2. The result for C5G A30G G126A reads at most -4.2; that for C5A C10A A26U C76U G86U C96A, at most -4.2; that for C5G C14G A30C A37G U53G C79G G94A, at most -4.2. The result for A3G A21G A28U A37U G88C reads at most -4.2.

Turning to C5G A26U A41U G42A G70A G88U, the “polymerase ribozyme fitness (log ratio)” value was at most -4.2. With A3C U9A A19C C27A A30C U31G C79G G88U C93G A110C C129G U139G, the “polymerase ribozyme fitness (log ratio)” value is at most -4.2. In the case of U4A A52G U90A G128C it was at most -4.2; in that of U4G A37C G50A G58A A91U C96A A119G, at most -4.2; in that of U4A U6A A12C A23C C76A A97G U101G, at most -4.2. In the case of C5G A12G C18G C35U G58A U77A G92C C95A G143U U144G it was at most -4.2; in that of A3G U44G U55A C99G U148A, at most -4.2. As to C5G G86A C87U C93A C105A A113G G141U, the “polymerase ribozyme fitness (log ratio)” value was at most -4.2. In the case of A3C A17C U56A G81A C85U U139C it was at most -4.2; in that of U4C C10G C18G C32G A39U C79U G84A C99U U104G, at most -4.2. The result for U4C C43G A49C G88C reads at most -4.2; that for C5U C14A A17U C32U A49C U53A C93A, at most -4.2.

For U4G G50C A52G G80C C85U C116G, the “polymerase ribozyme fitness (log ratio)” value was at most -4.2. In the case of A3G A49G C75G G88U A91C C93A U101G A107C G136C it was at most -4.2; in that of A3C U45C U55G C103G, at most -4.2; in that of A3U A21G A66C G80C A91C C96G, at most -4.2. Consider A3G A20C A22U A39G U55A G112C, for which the “polymerase ribozyme fitness (log ratio)” value is at most -4.2.

Consider C5G A16U C85U G86A C118G, for which the “polymerase ribozyme fitness (log ratio)” value was at most -4.2. In the case of C5U A22U G68U G74A G86C A119C G140A it was at most -4.2; in that of A3U C14A A17U A29G C69A, at most -4.2. In the case of C5U A19C A22G A37C G42A C69A G86A C108U C132U U146A it was at most -4.2; in that of C5A A52C G84A U139A, at most -4.2. For the variant A3C C10A G42A C79A C85G, the “polymerase ribozyme fitness (log ratio)” value was at most -4.2. The result for U4C G58C U61A C123G G124C C131G reads at most -4.2; that for A3U C36G C63G G84A C105A C123A C131G, at most -4.2. In the case of A3U U6C A17G A28G A49C C57U G58A G83C U148A it was at most -4.2.

Regarding C5A A73G C87U C129A U134C A142U, the “polymerase ribozyme fitness (log ratio)” value was at most -4.2. Consider C5U C51A A66C C87U A142U, for which the “polymerase ribozyme fitness (log ratio)” value was at most -4.2. Consider C5G C8A C14U A23C G94A G133U, for which the “polymerase ribozyme fitness (log ratio)” value was at most -4.2.

On to U4G U13A C87G, for which the “polymerase ribozyme fitness (log ratio)” value was at most -4.2. The result for A3C G42A C51G C85U reads at most -4.2. In the case of C5A A21U G74U G81C it was at most -4.2; in that of A3G G88U C108A, at most -4.2. The result for A3U G50A G81C C85A U109G reads at most -4.2. Consider C5A A28U C36A A47U C54U G88U U130G, for which the “polymerase ribozyme fitness (log ratio)” value is at most -4.2. In the case of U4A C5A U15A C43U A47C A66G C87A A115G A119G G141C it was at most -4.2; in that of C5U A28U C54U G84U C99U G141U G143C, at most -4.2. With C5G A49U A66U C87U C93U A98U C108G, the “polymerase ribozyme fitness (log ratio)” value is at most -4.2.

With A3U A39C U44A U55A G83C C108A, the “polymerase ribozyme fitness (log ratio)” value was at most -4.2. In the case of U4C C10U G25A U61A C69U C95A G141U it was at most -4.2; in that of A3C A23U A24C C35U G48U U82A C116U, at most -4.2; in that of U4G A12U A49G C87G G88A C125A, at most -4.2. The result for A3U A24G C76G U144C reads at most -4.2; that for A3G C14G C85A C99G U139G U146G, at most -4.2; that for U4C U31C A52C G70U C95A C149U, at most -4.2. The result for A3C U9G A24U A26U A52C C69U G88A A113C reads at most -4.2; that for U4G A12U A73G G81A G92U C99A C125A U134C, at most -4.2.

As for A3U U33G G42U C54G A66G C69G C95A G140C U146C, the “polymerase ribozyme fitness (log ratio)” value is at most -4.2. The result for U4A G34A G117U A137C A142U reads at most -4.2; that for A3U C8A A60C C79G G88C C105A U139G A142G U144C A150C, at most -4.2.

Regarding A3G C36U C75G A91G U104G A120G C125A A138U, the “polymerase ribozyme fitness (log ratio)” value was at most -4.2. For the variant A3U U9A A17U C27U A41C U53G C85U G92C U148G, the “polymerase ribozyme fitness (log ratio)” value is at most -4.2.

As to U4A G25A C54A G83A G92A, the “polymerase ribozyme fitness (log ratio)” value was at most -4.2. With U4C U15G A20G A47C A52U C85A G88U C93A A97C A119U A150U, the “polymerase ribozyme fitness (log ratio)” value was at most -4.2. The result for A3G A22U U33G U55A C93U reads at most -4.2; that for C5G C51U A52G C87U G92C A138U, at most -4.2. The result for C5G C14G U31G A40G G58U G59C G83U C96G C103G C149G reads at most -4.2; that for A3G A21U C35A C85U G112U A147C G152A, at most -4.2.
